We go through 42 compounds from ChEMBL document CHEMBL4888484, “Replenishing the malaria drug discovery pipeline: Screening and hit evaluation of the MMV Hit Generation Library 1 (HGL1) against asexual blood stage Plasmodium falciparum ,using a nano luciferase reporter read-out” (2022).

Screen size: about 150,000 compounds; about 540 (0.36%) showed an effect of 50% or more. This is one part of the list.

The assay has as its system Plasmodium falciparum. Description: Primary screen in NF54 nanoGlo assay, in single point, at 2uM, 72h; a lower Z score goes with more inhibition. The assay is classed as functional, Erythrocyte. As to conditions: timepoint 72 hour.
In the case of `CCOC(=O)CNC(=O)[C@H]1CC(=O)N(CCc2c[nH]c3ccc(F)cc23)C1`, the % Inhibition (usually the relative decrease from the control value, in per cent) is on record as -7% and the Z score came out at 1.37.

`O=C(COc1ccc(Cl)cc1Br)NC(=O)NC1CCCC1`: the “% Inhibition” value was 7% and the Z score is reported as -1.14.

Consider `C[C@H]1CN(Cc2nc(-c3cccs3)no2)CC(C)(C)O1`, for which the “% Inhibition” value is listed as 4% and the Z score is on record as -0.78.

For the compound `Cc1nc2oc(-c3ccccc3)nc2cc1N`, the “% Inhibition” value is on record as -15% and the Z score was determined as 1.7.

Consider `O=C1c2ccccc2-c2nc(-c3ccccc3)cc3cccc1c23`, for which the “% Inhibition” value is reported as -12% and the Z score worked out at 1.38.

Turning to `CC(C)c1nc(C(=O)NCCn2ncnn2)cs1`, the “% Inhibition” value is -2% and the Z score was 0.33.

For the compound `Cc1ccc(N2CCN(c3nc4c(c(N5CCOCC5)n3)CN(S(=O)(=O)c3ccccc3)CC4)CC2)cc1C`, the “% Inhibition” value is reported as -1% and the Z score came to 0.17.

On to `CCOc1ccccc1CCN=C(N(C)C)N(C)C`, for which the “% Inhibition” value is -1% and the Z score worked out at 0.1.

In the case of `O=C(NCc1c[nH]c2ccccc12)C1CCCC1`, the “% Inhibition” value is reported as 0% and the Z score is on record as -0.05.

For `Cn1cc(CNCc2ccc(N3CCCC3=O)cc2)cn1`, the “% Inhibition” value is listed as -9% and the Z score is listed as 0.97.

For the compound `COC(=O)CN1CCN(C(=O)c2cnc3ccccc3n2)CC1=O`, the “% Inhibition” value is on record as -6% and the Z score worked out at 0.59.

Consider `c1cncc(-c2nnc3n2CCCC[C@H]3C2CCOCC2)c1`, for which the “% Inhibition” value is -8% and the Z score is listed as 1.6.

Turning to `CCCN1C(=O)c2c(C(=O)NCCc3ccc(OC)c(OC)c3)ncn2C[C@@]1(C)C(=O)NC1CCCC1`, the “% Inhibition” value was -17% and the Z score stood at 3.2.

With `Cc1ccc(Oc2c(CN(Cc3ccco3)C[C@H](O)COC(C)C)c(-c3ccccc3)nn2C)cc1`, the “% Inhibition” value amounted to 10% and the Z score was -1.3.

Consider `C[C@@H](c1cnn(C)c1)n1ccnc1-c1ccccc1-c1ccco1`, for which the “% Inhibition” value is given as -7% and the Z score came to 1.01.

In the case of `O=C(Nc1ccc(Oc2cccc3cccnc23)cc1)c1ccc(O)nc1`, the “% Inhibition” value was -3% and the Z score is given as 0.42.

Regarding `CC1=C(C(=O)Nc2ccccc2)[C@H](c2ccc(C)cc2)NC(Nc2nc3ccccc3o2)=N1`, the “% Inhibition” value is given as -8% and the Z score is listed as 1.11.

Turning to `Cc1nn(C[C@@H](O)COCc2ccccc2)cc1Br`, the “% Inhibition” value is 34% and the Z score is given as -3.87.

In the case of `O=C1N[C@H](C(=O)N2CCc3c(CN4CCCC4)cccc32)CO1`, the “% Inhibition” value is recorded as -5% and the Z score stood at 0.66.

With `CCNC(=O)[C@@H]1CCCN1C(=O)Nc1cccnc1Oc1ccc(F)cc1`, the “% Inhibition” value is -3% and the Z score is listed as 0.58.

Regarding `CCN(CC)c1ccc(C(=O)N[C@@H](C)c2ccc(F)cc2F)cn1`, the “% Inhibition” value is recorded as -14% and the Z score is given as 2.37.

Turning to `CC(=O)c1ccc(O[C@H]2CCN(C3CC3)C2=O)cc1`, the “% Inhibition” value is on record as -14% and the Z score was determined as 1.44.

Consider `C[C@H]1CN(c2nnc(-c3ccccc3)c(=O)[nH]2)CCO1`, for which the “% Inhibition” value is recorded as 8% and the Z score is -1.02.

Turning to `CN(Cc1ccc2cc(O)ccc2c1)C[C@H]1CCCCO1`, the “% Inhibition” value amounted to 8% and the Z score is listed as -0.87.

For the compound `CCN(CC)c1ccc(C(=O)C(F)(F)F)c(O)c1`, the “% Inhibition” value is recorded as 32% and the Z score is -4.18.

Turning to `O=C1CC(C(=O)N2CC3CCC2C3)CN1c1nccs1` (centres undefined), the “% Inhibition” value worked out at 30% and the Z score is -3.4.

As for `Cc1cc(N2CCN(c3ncnc4[nH]ncc34)CC2)nc(C(C)C)n1`, the “% Inhibition” value is on record as -7% and the Z score came out at 1.24.

In the case of `O=C(CN1CCCC1C(=O)O)NC(c1ccc(F)cc1)C1CCCC1` (centres undefined), the “% Inhibition” value was -8% and the Z score was determined as 1.15.

As for `CC(C)c1nccc(C(=O)N[C@H]2CN(S(C)(=O)=O)C[C@@H]2C2CC2)n1`, the “% Inhibition” value is listed as 2% and the Z score was -0.36.

On to `COc1cccc(NC(=O)C2[C@H]3C=C[C@@]4(O3)C(C(=O)NC3CCCCC3C)N(Cc3ccccc3F)C(=O)[C@@H]24)c1` (some centres undefined), for which the “% Inhibition” value turned out to be 5% and the Z score was -0.82.

As for `CCc1ccc(CN2CCC[C@H](CNC(=O)c3ccc[nH]3)C2)nc1`, the “% Inhibition” value is recorded as -4% and the Z score came out at 0.44.

As to `CCn1ncc(NC(=O)Cn2ccc(C(=O)OC)n2)n1`, the “% Inhibition” value is recorded as -6% and the Z score is 1.26.

As for `Cc1ccc(F)cc1NC(=O)c1nn(-c2ccc(F)cc2)c2ccccc2c1=O`, the “% Inhibition” value worked out at 5% and the Z score was -0.68.

For the compound `CCN(CC)C(=O)COc1cccc(Br)c1`, the “% Inhibition” value is reported as -10% and the Z score stood at 1.27.

As for `O=S(=O)(c1ccc(OCC(O)CN2CCCC2)cc1)c1ccc(OCC(O)CN2CCCC2)cc1` (centres undefined), the “% Inhibition” value is 7% and the Z score is on record as -0.6.

On to `Cn1cnc(CNC(=O)c2cc(Cl)cc(F)c2N)n1`, for which the “% Inhibition” value is recorded as -4% and the Z score was determined as 0.32.

As to `O=C(OCCc1cnccn1)c1ccc(N2CCCC2)nc1`, the “% Inhibition” value is -3% and the Z score was determined as 0.38.

As for `CCN(C(=O)[C@@H]1CCC(=O)N1S(=O)(=O)c1ccccc1)c1ccc(OC)cc1`, the “% Inhibition” value is listed as -19% and the Z score is given as 2.64.

With `CC(=O)NC(C)(C)C[C@H](C)NCc1cnc(C)c(C)c1`, the “% Inhibition” value was -11% and the Z score stood at 1.19.

For `CCOc1ccccc1CN1CC[C@H](c2nc(C)n[nH]2)[C@H](NC(=O)C2CCOCC2)C1`, the “% Inhibition” value is on record as -6% and the Z score is given as 0.83.

For the compound `Cc1ccc(-c2nc(-c3ccc(S(=O)(=O)N4CCCCC4)cc3)no2)cc1C`, the “% Inhibition” value is reported as -2% and the Z score was 0.39.

For the compound `COc1nc(NCC2CCC(O)C2)nc(N2CCCCCC2)n1` (centres undefined), the “% Inhibition” value was -9% and the Z score turned out to be 1.4.
